Test results taken from article PMC4336329 (PLoS ONE, 2015).
Screen size: about 310,000 compounds; about 14,000 (4.5%) showed an effect of 50% or more. Effects have a minus sign here. The list shows a part of the results.

Each compound was assayed against human ether-à-go-go-related gene (hERG) potassium channel (human, UniProt Q12809) (assay: primary screen, population patch clamp on CHO cells stably expressing hERG).
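Further: peak tail current of the secondary pulse compared with the same well before compound.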

human ether-à-go-go-related gene (hERG) potassium channel, sequence (Q12809 whole entry, looked up): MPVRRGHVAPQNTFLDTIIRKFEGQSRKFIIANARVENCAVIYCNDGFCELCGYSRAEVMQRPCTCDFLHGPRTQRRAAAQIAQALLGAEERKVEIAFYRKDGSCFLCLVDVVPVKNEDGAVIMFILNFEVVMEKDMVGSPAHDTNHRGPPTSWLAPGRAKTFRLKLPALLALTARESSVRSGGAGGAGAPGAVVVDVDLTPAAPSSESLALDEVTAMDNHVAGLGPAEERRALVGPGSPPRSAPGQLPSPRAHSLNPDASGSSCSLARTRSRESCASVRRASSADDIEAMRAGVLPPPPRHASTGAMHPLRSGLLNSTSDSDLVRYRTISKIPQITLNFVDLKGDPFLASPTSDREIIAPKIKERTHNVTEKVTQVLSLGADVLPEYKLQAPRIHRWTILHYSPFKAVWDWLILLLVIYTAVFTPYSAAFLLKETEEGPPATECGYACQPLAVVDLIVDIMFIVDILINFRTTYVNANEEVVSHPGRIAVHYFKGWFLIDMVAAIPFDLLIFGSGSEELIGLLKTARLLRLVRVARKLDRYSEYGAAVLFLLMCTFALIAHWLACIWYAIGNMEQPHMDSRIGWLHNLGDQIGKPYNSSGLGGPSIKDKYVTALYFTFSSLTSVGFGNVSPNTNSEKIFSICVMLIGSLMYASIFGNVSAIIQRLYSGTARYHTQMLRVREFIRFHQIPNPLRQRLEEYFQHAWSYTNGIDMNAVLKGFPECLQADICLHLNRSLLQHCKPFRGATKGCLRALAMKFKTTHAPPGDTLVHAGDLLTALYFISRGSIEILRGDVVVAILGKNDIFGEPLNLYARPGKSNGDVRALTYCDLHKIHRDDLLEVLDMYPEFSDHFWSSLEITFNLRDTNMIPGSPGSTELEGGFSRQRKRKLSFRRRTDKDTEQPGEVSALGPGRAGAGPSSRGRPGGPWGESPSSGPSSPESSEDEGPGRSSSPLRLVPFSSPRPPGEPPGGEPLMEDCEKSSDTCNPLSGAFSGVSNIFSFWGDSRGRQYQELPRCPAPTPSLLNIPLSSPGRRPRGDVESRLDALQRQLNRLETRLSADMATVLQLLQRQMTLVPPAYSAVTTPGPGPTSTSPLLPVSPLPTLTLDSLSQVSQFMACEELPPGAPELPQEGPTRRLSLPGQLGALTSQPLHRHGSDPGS

First: COc1ccc(N2CCN(CC(=O)NC(=O)NCc3ccccc3)CC2)cc1
Second: CN(C)S(=O)(=O)c1cccc(C(=O)N2CCN(Cc3ccccc3)CC2)c1
The “hERG current change (%, negative = inhibition) at 10uM” value of the first is higher: 10.4% for the first, 6.78% for the second.

First: N#Cc1c(-n2cccc2C=O)sc2c1CCCC2
Second: O=c1c2c3c(sc2n2cnnc2n1CCc1ccccc1)CCCC3
The “hERG current change (%, negative = inhibition) at 10uM” value of the first is higher: -12.9% for the first, -20.5% for the second.

First: COC(=O)C1=C(CCc2ccccc2)NC(=O)NC1c1ccc(Cl)cc1 (centres unmarked)
Second: O=C(Cc1ccccc1)NCC(=O)OCC(=O)c1ccc(Cl)cc1
The “hERG current change (%, negative = inhibition) at 10uM” value of the first is lower: -9.59% for the first, 11.3% for the second.

First: O=C(NC1CN2CCC1CC2)c1cccc(Cl)c1 (centres unmarked)
Second: O=C(NC1CC2CCC1C2)c1ccc(CN2CCOCC2)cc1 (centres unmarked)
The “hERG current change (%, negative = inhibition) at 10uM” value of the first is lower: 3.72% for the first, 6.27% for the second.

Compared with `CN(C)S(=O)(=O)c1cccc(CNCC2COc3ccccc3O2)c1.O=C(O)C(=O)O` (centres unmarked), `Cc1cccc(C)c1NC(=O)CCCCCNS(=O)(=O)c1ccccc1` is higher in “hERG current change (%, negative = inhibition) at 10uM” value: -13.8% for the first, 5.08% for the second.

Compared with `CNC(=S)Nc1cc(Cl)ccc1Oc1ccccc1`, `O=C(CC(=O)c1ccccc1)Nc1cc([N+](=O)[O-])ccc1Cl` is higher in “hERG current change (%, negative = inhibition) at 10uM” value: -6.86% for the first, 8.83% for the second.

Compared with `COc1ccc([C@H]2[C@H](C(=O)C(C)(C)C)N3N=Cc4ccccc4C3[C@]23N=C(c2ccccc2)OC3=O)cc1OC` (some centres unmarked), `COc1ccc(-c2c(C(F)(F)F)oc3cc(OCC(=O)Nc4ccccc4C(F)(F)F)ccc3c2=O)cc1OC` is higher in “hERG current change (%, negative = inhibition) at 10uM” value: 2.55% for the first, 4.91% for the second.

Compared with `CC1=NCCN1CCNC(=O)Nc1ccc(F)cc1`, `CNCC(=O)Nc1ccc(OC(F)(F)F)cc1.Cl` is lower in “hERG current change (%, negative = inhibition) at 10uM” value: 7.18% for the first, -3.92% for the second.

Going from `c1ccc(N2CCN(Cc3cn4cccnc4n3)CC2)cc1` to `Cn1c(SCC(=O)N2CCN(S(=O)(=O)c3ccccc3)CC2)nc2ccccc21`, the “hERG current change (%, negative = inhibition) at 10uM” value falls from 11.2% to -13.8%.

Compared with `CCC(=O)N1CCc2cc(S(=O)(=O)CCC(=O)NCc3ccc(OC)cc3)ccc21`, `CCOC(=O)N1CCN(C(=O)c2ccc(CN(c3ccc(C)c(C)c3)S(C)(=O)=O)cc2)CC1` is lower in “hERG current change (%, negative = inhibition) at 10uM” value: 8.16% for the first, -18% for the second.

Going from `CCCCN=Cc1sc2ccc(OCC)cc2c1O` to `CCOc1ccc(-c2ccc(SCC)nn2)cc1`, the “hERG current change (%, negative = inhibition) at 10uM” value rises from 3.66% to 22.8%.

First: O=C(NC(=S)N1CCOCC1)c1cc2ccccc2o1
Second: COc1ccc(NC(=S)N2CCOCC2)c(OC)c1
The “hERG current change (%, negative = inhibition) at 10uM” value of the first is higher: 12.7% for the first, 10.7% for the second.

Compared with `Cc1cccc(NC(=O)CSc2nnc(C)c(=O)n2N)c1C`, `COC(=O)CSc1nc(C)c2c(n1)CCCC2` is lower in “hERG current change (%, negative = inhibition) at 10uM” value: 9.09% for the first, -17.4% for the second.

Going from `CC1(OC(=O)c2ccc(Cl)nc2)C(=O)C=C2C=C(c3ccsc3)OC=C2C1=O` (centres unmarked) to `CCN(c1ccc(NC(=O)c2ccc(Cl)nc2)cc1)C(C)C`, the “hERG current change (%, negative = inhibition) at 10uM” value falls from 9.98% to -1.54%.

Compared with `COc1ccc(NC(=O)CN(C)C(=O)c2cc3c(cc2Cl)N2CCCCCC2=NS3(=O)=O)cc1`, `COC(=O)/C(=C\Nc1ccc(OC)cc1)NC(=O)c1ccc(Cl)cc1Cl` is lower in “hERG current change (%, negative = inhibition) at 10uM” value: 17.3% for the first, -17.7% for the second.

Going from `NC(=O)c1noc(C(=O)N(CC(=O)NC2CCCC2)Cc2ccc3c(c2)OCO3)c1N` to `O=C(NC1CCCC1)C(c1ccccc1)N(Cc1ccc2c(c1)OCO2)C(=O)Cc1cccs1` (centres unmarked), the “hERG current change (%, negative = inhibition) at 10uM” value rises from -7.94% to 6.01%.

Going from `O=C(NN1C(=O)C2C(c3ccccc3)C=CC(c3ccccc3)C2C1=O)c1ccccc1` (centres unmarked) to `CSCC[C@H](NC(=O)[C@H](Cc1ccccc1)n1c(=O)[nH]c2ccccc2c1=O)C(=O)N[C@@H](Cc1ccccc1)C(=O)O`, the “hERG current change (%, negative = inhibition) at 10uM” value rises from 10.2% to 17%.

First: CCC(C)NCCOCCOc1ccc(Cl)c2ccccc12.O=C(O)C(=O)O (centres unmarked)
Second: CC(C)OCCCNC(=O)CCC(=O)NNc1nc2ccccc2c2nc(-c3ccccc3)nn12
The “hERG current change (%, negative = inhibition) at 10uM” value of the first is lower: -32.2% for the first, -31.4% for the second.

Going from `COc1ccc(CNC(=S)N/N=C(\C)c2ccc(OC)cc2)cc1` to `C/C(=N/NC(=O)CNC(=O)Cc1ccc(Cl)cc1)c1ccco1`, the “hERG current change (%, negative = inhibition) at 10uM” value rises from 2.51% to 4.04%.

Compared with `COc1ccc(CN2CCC(N3CC(C)OC(C)C3)CC2)c(OC)c1.O=C(O)C(=O)O` (centres unmarked), `CCc1cc(=O)oc2cc(OCC(=O)N3CCC(C(=O)O)CC3)ccc12` is higher in “hERG current change (%, negative = inhibition) at 10uM” value: -1.98% for the first, 7.74% for the second.

First: CCOC(=O)Cn1c(C)c(Br)c(COC)c(C#N)c1=O
Second: COc1cc(C(=O)OCCc2c(C)nc3nc[nH]n3c2=O)cc(OC)c1OC
The “hERG current change (%, negative = inhibition) at 10uM” value of the first is lower: 5.71% for the first, 27.6% for the second.

First: O=C(/C=C/c1cccc([N+](=O)[O-])c1)NCCSCc1ccc(Cl)cc1
Second: Cc1ccnc(S(=O)(=O)Cc2ccc([N+](=O)[O-])cc2)n1
The “hERG current change (%, negative = inhibition) at 10uM” value of the first is lower: -13.1% for the first, 20% for the second.

First: CCOC(=O)C1CCN(C(=O)C2CCC(=O)N(CC3CCCCC3)C2)CC1 (centres unmarked)
Second: O=C1NCCN(Cc2cccc(Oc3ccccc3)c2)C1CC(=O)N1CCCCC1 (centres unmarked)
The “hERG current change (%, negative = inhibition) at 10uM” value of the first is higher: 0.313% for the first, -0.741% for the second.

Compared with `CSc1oc(-c2ccco2)nc1S(=O)(=O)c1ccc(C)cc1`, `COc1ccc(S(=O)(=O)NCCSc2ccc(C)cc2)cc1OC` is lower in “hERG current change (%, negative = inhibition) at 10uM” value: 11.6% for the first, -23.2% for the second.

Going from `CCOc1ccc(C(=O)NC(=S)Nc2ccccc2N2CCC(C)CC2)cc1[N+](=O)[O-]` to `CC(=O)NC(Cc1ccc(F)cc1)C(=O)NC1CCN(c2ncccc2[N+](=O)[O-])CC1` (centres unmarked), the “hERG current change (%, negative = inhibition) at 10uM” value rises from 5.75% to 11.1%.

Going from `COc1cccc(C2=NN(C(C)=O)C(c3cccs3)C2)c1` (centres unmarked) to `CC(=O)c1c(C)oc2ccc(OCc3ccccc3)cc12`, the “hERG current change (%, negative = inhibition) at 10uM” value falls from 10.7% to 0.181%.

First: O=C1CNC(=S)N1CCc1ccccc1Cl
Second: O=C1NC(=O)N(Cc2ccccc2)C(=O)/C1=C/c1cnc(-c2ccccc2)nc1
The “hERG current change (%, negative = inhibition) at 10uM” value of the first is lower: 7.27% for the first, 15.3% for the second.

First: C=Cn1cc[n+](CC(=O)c2ccc(-c3ccccc3)cc2)c1.[Br-]
Second: Oc1oc(-c2ccccc2)nc1C=NCc1ccccc1
The “hERG current change (%, negative = inhibition) at 10uM” value of the first is higher: 7.91% for the first, 6.78% for the second.

Compared with `O=C(Cn1c(-c2ccccc2Cl)nc2ccccc21)Nc1cccc(Cl)c1`, `O=C(c1ccc(Cl)c(Cl)c1)c1cnc(Nc2ccccc2)s1` is higher in “hERG current change (%, negative = inhibition) at 10uM” value: 0.898% for the first, 27.5% for the second.

Going from `CS(=O)(=O)c1ccc2nc(NC(=O)Nc3cccc(Cl)c3)sc2c1` to `Cc1cccc(NC(=O)Nc2ccc(C#N)cc2)n1`, the “hERG current change (%, negative = inhibition) at 10uM” value rises from -5.84% to 8.42%.

First: COc1ccc(C(=O)[C@H]2[C@H]3C(=O)N(c4ccc(C)cc4)C(=O)[C@H]3C3C=CC=NN32)cc1 (some centres unmarked)
Second: COC(=O)c1cn(NC(=O)c2ccc(OC)c(OC)c2)c(=O)c2ccccc12
The “hERG current change (%, negative = inhibition) at 10uM” value of the first is higher: -6.9% for the first, -10.9% for the second.

Going from `CCO[C@@H]1OC(C(=O)NC2CC2)=C[C@H](c2csc3ccccc23)[C@H]1CCCO` to `CCOCCCNC(=O)c1ccc(CS(=O)(=O)c2cccc(C(F)(F)F)c2)o1`, the “hERG current change (%, negative = inhibition) at 10uM” value rises from -21.4% to 6.78%.

Going from `CN(C(=O)CN1C(=O)S/C(=C\c2cccc(Cl)c2)C1=O)C1CCS(=O)(=O)C1` (centres unmarked) to `CSc1ccccc1C(=O)N(CC1CCCO1)c1c(N)n(Cc2ccccc2)c(=O)[nH]c1=O` (centres unmarked), the “hERG current change (%, negative = inhibition) at 10uM” value rises from -25.8% to -1.39%.

First: COc1ccc(C(=O)NCCOc2ccccc2)cc1S(=O)(=O)N1CCOCC1
Second: COc1ccc(NC(C)=O)cc1NC(C)C(=O)Nc1cccc(S(=O)(=O)N2CCOCC2)c1 (centres unmarked)
The “hERG current change (%, negative = inhibition) at 10uM” value of the first is lower: -32.3% for the first, 13.4% for the second.

Compared with `Cc1cccn2c(=O)c3cc(S(=O)(=O)c4ccccc4)c(=N)n(Cc4ccco4)c3nc12`, `Cc1cccc(-n2[nH]c3c4c(ccc3c2=O)C(=O)c2ccccc2C4=O)c1` is higher in “hERG current change (%, negative = inhibition) at 10uM” value: -0.654% for the first, 4.95% for the second.

Compared with `N#CCC(=O)N1CCN(C=O)CC1`, `O=C(c1csc2c1CCCC2)N1CCN(c2ncccn2)CC1` is lower in “hERG current change (%, negative = inhibition) at 10uM” value: 7.8% for the first, -25.1% for the second.

Compared with `O=C(CCCCl)NC(=S)Nc1cc(C(F)(F)F)ccc1N1CCOCC1`, `FC(F)(F)c1cccc(OCC2CNC(=S)O2)c1` (centres unmarked) is higher in “hERG current change (%, negative = inhibition) at 10uM” value: -47.6% for the first, 0.125% for the second.

Compared with `CCOC(=O)C1(C(F)(F)F)N=C(c2cccnc2)OC(N2CCCCC2)=N1` (centres unmarked), `Cc1c(C(=O)N2CCOCC2)oc2c1C(=O)CC(C)(C)C2` is lower in “hERG current change (%, negative = inhibition) at 10uM” value: 6.89% for the first, -1.59% for the second.

Compared with `O=C1C=C(c2cccc(O)c2)CCC1`, `O=S(=O)(NCC1CCCO1)c1cccc2nsnc12` (centres unmarked) is lower in “hERG current change (%, negative = inhibition) at 10uM” value: 9.21% for the first, 6.69% for the second.

Compared with `C#CC(CC)(CC)NC(=S)Nc1ccc(S(N)(=O)=O)cc1`, `CCN(CC)C(=O)c1ccc(NC(=O)COC(=O)c2ccc(Cl)s2)cc1` is lower in “hERG current change (%, negative = inhibition) at 10uM” value: -0.342% for the first, -18.2% for the second.

Going from `[N-]=[N+]=NC[C@H](Cc1ccccc1)N1CC[C@@H](NC(=O)OCc2ccccc2)CCC1=O` to `O=C(CSc1ncnc2ccccc12)NCCc1ccccc1`, the “hERG current change (%, negative = inhibition) at 10uM” value rises from -52.5% to 3.01%.

Going from `CCN(CC)S(=O)(=O)c1cccc(C(=O)Nc2cc3oc4ccccc4c3cc2OC)c1` to `O=C(COC(=O)c1cccc(S(=O)(=O)N2CCOCC2)c1)Nc1nc(-c2ccccc2Cl)cs1`, the “hERG current change (%, negative = inhibition) at 10uM” value falls from -1.19% to -14.5%.

First: c1ccc(P(c2ccccn2)c2ccccn2)cc1
Second: CCC/C=C(\CCC)C(NC(=O)c1ccc(C(=O)OC)cc1)c1ccc(C(=O)OC)cc1 (centres unmarked)
The “hERG current change (%, negative = inhibition) at 10uM” value of the first is lower: 9.53% for the first, 15.3% for the second.
